For this series, the system named is ATP. Description: switch fluorescence ratio, 500 uM ATP over buffer (Cy3 cluster intensity, sum of 5 cycles each) (fold (ratio)); higher = stronger signal-on switching upon ATP binding; sequences stand for … in TCGTCGGCAGCGTCAGATGTGTATAAGAGACAGTTTTTTTTTTTTTTTTTTTTTTTTT…TC. The settings on record: aptamer strand: ATP DNA aptamer (quencher-CACCTGGGGGAGTATTGCGGAGGAAGG + anchor), 100 nM annealed; ATP concentration: 500 uM; one replicate. The essentials: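 Exposure to 500 uM ATP lasted 15 min at 22 °C before imaging, and a selection-buffer image was taken beforehand, for Cy3-labelled switching-strand clusters on a modified Illumina MiSeq flow-cell annealed to 100 nM quencher-labelled ATP aptamer. Five buffer/ATP cycles were run with NaOH stripping and re-annealing between them. The fluorescence ratio per cluster is summed target-cycle over summed buffer-cycle Cy3 intensity, averaged per switch-domain sequence. Clusters outside 100-1000 RFU were excluded.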

Values marked as one replicate rest on one cluster of the flow cell; about a third of the high ones do not repeat.

With CCGCACGGCA, the switch fluorescence ratio was 1.84.
The value for CCCACCCCCC was 1.48; that for ATCACCGAAA was 1.12.
Take TCTATTGCTT: the switch fluorescence ratio came out at 0.986.
The value for TCGATTAGG was 1.01.
For AACCCGGGTT, the switch fluorescence ratio was 1.01.
As for ATACGTAGAA, the switch fluorescence ratio was 1.09.
Consider TTGGTCCTGT, for which the switch fluorescence ratio stood at 1.02.
The value for TTCTTATCCT was 1.07; that for GGGCGGCGCA was 0.977.
The value for AAGAATAGAG was 0.979; that for GTAGGGTGAG was 0.989; that for ACGTTAGTAA was 1.01.
Consider TAAGGCAGGT, for which the switch fluorescence ratio is 0.978.
Regarding AGGGTTCCAT, the switch fluorescence ratio was found to be 0.977.
For the sequence TACACTGAGG, the switch fluorescence ratio was 1.03.
TATTTACACT: the switch fluorescence ratio was found to be 1.05.
For AGCCTTTTGA, the switch fluorescence ratio is 1.03.
Regarding TTGGACCATA, the switch fluorescence ratio is 1.04.
On to CTTAATGTTA, for which the switch fluorescence ratio worked out at 1.01.
As to TAGGGCAGTT, the switch fluorescence ratio is 0.981.
For the sequence GGGATTAATC, the switch fluorescence ratio worked out at 1.05.
Consider AAGCTAGCC, for which the switch fluorescence ratio was found to be 1.08.
Regarding AAAAAAGCCC, the switch fluorescence ratio was 0.997.
Turning to TTAGGCGTAA, the switch fluorescence ratio is 0.981.
Then ACTATGTACA, with 1.05; and TTGGCTCCGT, with 1.03; and GTCGCGAATG, with 1.07.
Then AGATGACCTC, with 1.01.
Consider ATAGTTTAAT, for which the switch fluorescence ratio was 1.02.
Consider GTTGTTCTTT, for which the switch fluorescence ratio was found to be 0.98.
Then GCCGTACATT, with 1.06; and TGTGAGACGA, with 1.04; and GATAATCGCG, with 0.948.
ACTATCCACC: the switch fluorescence ratio amounted to 1.12.
As for TCATATTGCA, the switch fluorescence ratio is 1.02.
On to ACCTTCCGGA, for which the switch fluorescence ratio turned out to be 1.69.
Then CTACTGCGGC, with 1.07.
Consider CGTGTAGAAG, for which the switch fluorescence ratio was 1.03.
Then TGACTGCAGC, with 1.04; and ACCCAAAAAA, with 1.04.
In the case of TGTGAGCGTA, the switch fluorescence ratio came out at 1.05.
Regarding GTAGGTCGCA, the switch fluorescence ratio amounted to 0.992.
The value for CACAAGATAT was 1.06.
The value for CAACACTCTT was 1.03.
Then AAGGCCATTT, with 0.959; and GCGGACTACT, with 1.05; and CCCATTGCGC, with 1.03.
In the case of TAGCCTGGTC, the switch fluorescence ratio is 1.01.
Take GTAGTTTCAG: the switch fluorescence ratio amounted to 0.955.
The value for CGCCTAGTGT was 1.05; that for CATCTGAACG was 1.05; that for CGCGTCATGC was 1.09.
Turning to GTAAGAGACC, the switch fluorescence ratio amounted to 1.02.
As for CTATGTCAGG, the switch fluorescence ratio turned out to be 1.2.
The value for TACTTAACTT was 1.12.
With ACCCTGTATT, the switch fluorescence ratio was 1.05.
On to TATTATATA, for which the switch fluorescence ratio turned out to be 1.01.
On to GTCCCGGCTC, for which the switch fluorescence ratio was 1.03.
For CTGCTGTGGA, the switch fluorescence ratio was 1.02.
For AATTTCGGC, the switch fluorescence ratio came out at 0.967.
Take CGTAGTAGTT: the switch fluorescence ratio was determined as 0.987.
In the case of CGGAGAAGT, the switch fluorescence ratio was 1.02.
Then GGCAAACGTT, with 1.02.
Regarding AAACTGATAA, the switch fluorescence ratio came out at 1.02.
Consider TCAACCCCCG, for which the switch fluorescence ratio is 1.29.
For ACCTTTACAT, the switch fluorescence ratio came out at 1.18.
Then ATGATTAAAG, with 1.
In the case of CGGGCACGCT, the switch fluorescence ratio was 1.03.
The value for ACCCGGGACC was 1.04; that for AAATACATTC was 0.966.
As for TGCAGTGCTG, the switch fluorescence ratio was found to be 0.973.
Take AATCTAGTAA: the switch fluorescence ratio was determined as 1.03.
The value for TGTCGACCTC was 1.03.
The value for AATTTGGAGT was 1.01; that for CTATCGCCAA was 1.8; that for CATGGGTCA was 0.987.
As for TTGAAATTCC, the switch fluorescence ratio worked out at 1.04.

For the origin of these results see the supplement of paper PMC10126150.
